According to ChEMBL document CHEMBL4888484, “Replenishing the malaria drug discovery pipeline: Screening and hit evaluation of the MMV Hit Generation Library 1 (HGL1) against asexual blood stage Plasmodium falciparum ,using a nano luciferase reporter read-out” (2022):
Out of some 150,000 compounds screened, about 540 (0.36%) showed an effect of 50% or more. Some of the results follow.

What follows are compounds tested on Plasmodium falciparum (assay: Primary screen in NF54 nanoGlo assay, in single point, at 2uM, 72h; a lower Z score goes with more inhibition). Settings: timepoint 72 hour.
Format: functional, Erythrocyte

SMILES | % Inhibition | Z score
C[C@H](OC(=O)C1CCC1)C(=O)Nc1ncnc2[nH]cnc12 | -12% | 1.57
O=C(NCC1(CO)COC1)c1ccc(Cl)c(Cl)c1 | 4% | -0.77
O=C(NC(c1ccccc1)c1ccccc1)N1CCCCC1 | -1% | 0.25
CC(C)[C@H](C)n1nccc1NC(=O)c1ccc(-n2cnnc2)nc1 | -13% | 1.8
CN(C)C(=O)c1cccnc1N1CCC(C(=O)O)(n2ccnc2)CC1 | -13% | 1.54
COC(=O)c1ccc2c(c1)CC[C@H](NCc1cc(C)n(C)n1)C(=O)N2 | -6% | 1.24
Cc1c(F)ccc(Cl)c1NC(=O)CC[C@H]1CC[C@@H](C(N)=O)O1 | -6% | 0.65
C[C@@H](c1cccc(C(F)(F)F)c1)N(C(=O)c1cc[n+]([O-])cc1)C1CC1 | -9% | 1.13
Cc1cc(=O)c(C(=O)NCc2ccccn2)c(CC2CCCC2)n1C | -10% | 1.41
CCOC(=O)C1=C(C(=O)OCC)SC(=C2C(=S)C(C)(C)N(C(=O)Cc3ccccc3)c3ccc(OCC)cc32)S1 | 5% | -0.55
COc1ccc(CC(=O)N2[C@H](C(=O)NC3CC3)C[C@@H]3OCC[C@@H]32)c(F)c1 | 4% | -0.57
Cc1cc(O)ncc1NC(=O)Cc1cccc2ccccc12 | 1% | -0.08
Cc1cc(NC(=O)NCCc2csc(C)n2)no1 | -15% | 2.87
COC1(C)CC(NC(=O)NCc2cnn(C)c2)C1(C)C (stereo unspecified) | -9% | 1.22
O[C@@H](Cn1nc(N2CCCC2)sc1=S)c1ccccc1 | -21% | 2.5
CC1CCC(C(C)C)C(OC(=O)Cn2nnc(C(N)=O)n2)C1 (stereo unspecified) | 19% | -2.22
O=C(c1c[nH]nc1C1CCCCC1)N1CCC(Oc2cccnc2)CC1 | -1% | 0.21
Cc1cnn(CCC(=O)N[C@H](C)c2ccc3c(c2)CCO3)c1 | 7% | -1.03
CC(=O)c1ccc(NC(=O)Cn2c(-c3ccccc3)nc(C)cc2=O)cc1 | 33% | -0.49
CCn1cc(C(=O)NC(CC2CCCc3ccccc32)C(=O)O)cn1 (stereo unspecified) | 10% | -1.02
CN(Cc1ccccc1S(N)(=O)=O)C(=O)[C@H]1CCc2cncn2C1 | 13% | -1.67
O=C(CS(=O)(=O)C1CCCC1)N1CCC[C@@H]1CN1CCCC1 | -7% | 0.68
COc1cccnc1NC(=O)c1cnn(C)c1 | 34% | -4.63
Cc1nc2ccccn2c1CNC(=O)c1noc2c1CC(C)(C)CC2 | -8% | 1.51
Cc1cc(Oc2nc(N3CCCCC3)nc3c2CN(S(=O)(=O)c2ccc(F)cc2)CC3)ccc1F | -11% | 1.51
CCN(CC)C(=O)CN1CCCN(c2ncnc3c2cnn3C)CC1 | -7% | 0.64
Cc1cc(C)n(CC(=O)N2CC(=O)Nc3cc(F)c(F)cc32)n1 | 3% | -0.43

SMILES | % Inhibition | Z score
Cc1cc(C(F)(F)F)n(C[C@@H](C)CNC(=O)CNC(=O)N(C)C)n1 | -11% | 1.77
O[C@H](CCN1CCC2(CCCC2)C1)c1ccccc1 | -13% | 1.8
O=C(CN1CCOC1=O)N1CC[C@@]2(CCCN(CCCc3ccccc3)C2)C1 | 8% | -1.5
Cc1c(Cl)cnn1Cc1nnc(-c2ccc(C#N)cc2)o1 | -1% | 0.07
O=C(COc1ccccc1)N1CC[C@H]2[C@H](CCCN2CC2CC=CCC2)C1 (stereo partly specified) | -13% | 1.75
O=C1Nc2ccc(-c3ccc4c(c3)OCO4)cc2C(=O)N2CC[C@H](NC(=O)N3CCOCC3)[C@@H]12 | -14% | 2.7
CCOc1ccc([C@H]2NS(=O)(=O)NC2=N)cc1 | 2% | -0.26
O=C(c1ccccc1)N1CCC[C@@](F)(C(=O)NCc2ccncc2)C1 | -14% | 1.2
CN1CCC(NC(=O)c2cccc3cc[nH]c23)CC1 | -8% | 1.06
CC[C@H](C)C(=O)NCC(=O)Nc1ccccc1-n1ccnn1 | 6% | -0.48
COc1ccc(S(=O)(=O)N2CCOCC2)cc1NC(=O)C1(c2cccc(Cl)c2)CCCCC1 | -1% | 0.1
Cc1cnc(C(=O)N2CCCN(Cc3ccc(Cl)cc3)CC2)cn1 | -1% | 0.13
CC(C)C1(CNC(=O)N2CC(=O)N[C@@H](C)C2)CC1 | -19% | 3.17
Cc1noc2nc(CCC(=O)NCCN3CCCC3)nc(N3CCCCCC3)c12 | -6% | 0.89
C=CCn1c(-c2ccccc2Cl)cn2cc(C(=O)N3CCN[C@@H](CC)C3)nc2c1=O | -22% | 2.56
Cc1csc([C@@H](C)CNC(=O)N2CCCNC(=O)C2)n1 | -3% | 0.26
COc1ccc(-c2nn(-c3ccccc3C)cc2CNC[C@H]2COCCO2)cc1F | -14% | 1.22
CC1(C)CN(C(=O)c2cccc(N)n2)CCO1 | 11% | -1.52
Cc1cccc(C(C)(C)NCC(=O)NC(C)C)c1 | -7% | 0.95
CC(=O)N1CCc2c(NC(=O)NCc3ccccc3CC(C)C)cccc21 | -2% | 0.29
CC1CN(C(CNCc2cnn(C(C)C)c2)c2cccs2)CCO1 (stereo unspecified) | -6% | 0.79
COc1ccccc1NC(=O)COc1cccc(-c2noc(COc3ccccc3)n2)c1 | 6% | -0.74
CN(C)c1cc(NC(=O)CC2=CCCCC2)ncn1 | -9% | 1.74
COCc1nc([C@@H]2COCCN2C(=O)CC(C)(C)OC)no1 | -13% | 1.79
COC(=O)c1[nH]c(C)cc1NS(=O)(=O)c1c(F)c(F)cc(F)c1F | 26% | -2.99
NC(=O)N1CCC[C@H]1C(=O)NC1CC(=O)N(C2CC2c2ccccc2)C1 (stereo partly specified) | 31% | -0.76
